Measurements reported in PubChem BioAssay AID2546 (National Center for Advancing Translational Sciences (NCATS), 2010).
About 11,000 (3.5%) of roughly 310,000 compounds were called active. Inconclusive results, whose numbers are uncertain, are shown with a selection of clear calls. The call rests on the fitted dose curve; in most records, active means well fitted inhibition curve with a large enough effect; inconclusive means small, poorly fitted or top-dose-only effect, or effect the other way; inactive means flat fitted curve, though single readings scatter. Potencies of inconclusive entries are left out as doubtful fits.

Assay: VP16 counterscreen qHTS for inhibitors of ROR gamma transcriptional activity;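 further: Gal4-VP16 expression switched on by copper sulfate through the metallothionein promoter; nearly all actives have a fitted effect of over 50% in size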
Details: Drosophila S2 Gal4-VP16 UAS-luciferase, luminescence, 20 h; activity, negative = inhibition: at 53.6 µM (top of the series)
On the % scale 0 is the no-effect control and ±100 the full control effect; potency means the concentration at half of the fitted maximal effect; tags describe the fitted curve by direction and shape.

SMILES	activity, negative = inhibition	Potency
COc1ccc(C(=O)N2CCC[C@@]3(CCN(c4ccncc4)C3)C2)cc1	inactive: -4.17%	–
CCOC(=O)c1c(C)[nH]c(C(=O)Nc2ccc(C)c(Cl)c2)c1C	–	inconclusive [inhibitor, single point]
COc1cc(OC)cc(N2C(=O)CC(N3CCC(C(=O)N4CCCCC4)CC3)C2=O)c1 (stereo not given)	–	inconclusive [inhibitor, single point]
CN(C(=O)c1ccc(Oc2ccc([N+](=O)[O-])cc2)cc1)C1CCCCC1	–	inconclusive [inhibitor, single point]
Cc1nc2ccc(NC(=O)Cn3cnc4c3c(=O)n(C)c(=O)n4C)cc2s1	inactive: -2.58%	–
Cc1snnc1C(=O)NC(=S)Nc1ccccc1	–	active: 5.62 µM
CCN(C(=O)c1ccco1)c1nnc(-c2ccc(OC)cc2)s1	–	inconclusive [inhibitor, single point]
CCC(NC(=O)OCc1ccccc1)C(=O)Oc1ccc2ccc(=O)oc2c1 (stereo not given)	inactive: 2.46%	–
COc1ccc(S(=O)(=O)N2CCC(C(=O)NCCc3ccc4c(c3)OCO4)CC2)cc1	inactive: 5.46%	–
C/C(N)=C(/C#N)C(=O)CSc1n[nH]c(-c2ccccc2Br)n1	–	inconclusive [inhibitor, full curve, poor fit]
CCc1ccc(C=NC23CN4CN(CN(C4)C2)C3)s1	inactive: 3.48%	–
Cc1ccc(C)c2[nH]c(=O)c(CN(CCN3CCCC3)C(=O)Nc3cccc(Cl)c3)cc12	inactive: -1%	–
CCCCCCC(=O)N(O)C1CC(=O)N(c2ccc(C)cc2)C1=O (stereo not given)	–	inconclusive [inhibitor, single point]
O=C(N/N=C/c1cccs1)c1cccc2cc[nH]c12	–	inconclusive [inhibitor, single point]
CC(=O)c1cccc(NC(=S)NCCc2ccc(Cl)cc2)c1	–	inconclusive [inhibitor, single point]
COc1ccc(C2C=C3CNS(=O)(=O)C3CC2OC(=O)c2ccc(C(F)(F)F)cc2)cc1 (stereo not given)	–	inconclusive [inhibitor, full curve, poor fit]
CCCCCCc1cc2cc(S(=O)(=O)c3ccc(F)cc3)c(=O)oc2cc1O	–	inconclusive [inhibitor, single point]
CCOC(=O)Cc1csc(NS(=O)(=O)c2ccc3ccccc3c2)n1	–	inconclusive [inhibitor, single point]
Cc1ccc(C(=O)NNC(=O)c2ccc3ccccc3c2O)cc1	–	active: 10 µM
OCCN1CCN(CCC=C2c3ccccc3Sc3ccc(Cl)cc32)CC1	–	inconclusive [inhibitor, single point]
